Data taken from the supplement of paper PMC12217912.
Some of the results follow. Sequences were assembled here from the parent chain. Values near 0.05 are background.

B1: TEV protease; numbered along this chain (parent)
chain: MGESLFKGPRDYNPISSSICHLTNESDGHTTSLYGIGFGPFIITNKHLFRRNNGTLVVQSLHGVFKVKDTTTLQQHLVDGRDMIIIRMPKDFPPFPQKLKFREPQREERICLVTTNFQTKSMSSMVSDTSCTFPSGDGIFWKHWIQTKDGQCGSPLVSTRDGFIVGIHSASNFTNTNNYFTSVPKNFMELLTNQEAQQWVSGWRLNADSVLWGGHKVFMVKPEEPFQPVKEATQL

Variants of: B1
Experiment: raw area under fraction-flipped curve 0-4 h after induction (AUC4h, not background-subtracted), DNA-recorder readout of cleavage of the substrate (dimensionless); higher = more cleavage of the substrate by the protease variant
Conditions: temperature: 34 °C; time window: 0-4 h after rhamnose induction
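Also: Bxb1 expression induced with 0.2% (w/v) L-rhamnose at OD600 near 0.5, cultures sampled hourly, flipped fraction per protease–substrate barcode pair counted by paired-end Illumina sequencing.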

Row | Variant | area with substrate ENAYFQS | area with substrate ENCYFQS | area with substrate ENDYFQS | area with substrate ENEYFQS | area with substrate ENFYFQS | area with substrate ENGYFQS | area with substrate ENIYFQS | area with substrate ENMYFQS | area with substrate ENNYFQS | area with substrate ENPYFQS | area with substrate ENQYFQS | area with substrate ENSYFQS | area with substrate ENWYFQS | area with substrate ENHYFQS | area with substrate ENKYFQS | area with substrate ENRYFQS | area with substrate ENTYFQS | area with substrate ENVYFQS | area with substrate ENYYFQS
1 | D128W | 0.0787 | 0.0633 | 0.0748 | 0.0968 | 0.0648 | 0.0521 | 0.1 | 0.106 | 0.0838 | 0.0534 | 0.0587 | 0.0535 | 0.0648 | – | – | – | – | – | –
2 | P134H | 0.0623 | – | 0.0542 | 0.0664 | 0.0605 | 0.0542 | 0.0825 | 0.0658 | 0.0595 | 0.0472 | 0.055 | 0.0531 | – | 0.0667 | 0.0626 | 0.0381 | 0.0491 | 0.0699 | –
3 | G136H | 0.0618 | 0.0836 | 0.0563 | – | 0.0532 | – | 0.114 | 0.0817 | 0.0467 | 0.064 | 0.0588 | 0.0646 | 0 | 0.0617 | 0.0711 | 0.0459 | 0.0668 | – | 0.0599
4 | G136L | 0.0553 | – | 0.0687 | 0.0629 | 0.0474 | 0.0579 | 0.108 | 0.0721 | 0.0708 | – | 0.0637 | 0.0724 | 0.0039 | – | 0.0566 | – | – | 0.0733 | –
5 | G136N | 0.0659 | 0.0627 | 0.0705 | 0.0599 | 0.0458 | – | – | 0.0979 | 0.0505 | 0.0616 | 0.0559 | 0.037 | 0.0425 | 0.07 | 0.0595 | – | – | 0.105 | –
6 | G136Q | 0.0799 | 0.0596 | 0.0575 | 0.0576 | 0.0669 | 0.0646 | 0.125 | 0.0721 | 0.056 | 0.0568 | 0.052 | 0.0648 | 0.0485 | 0.0205 | 0.0385 | 0.0606 | 0.0654 | 0.0837 | 0.0589
7 | G136R | 0.0435 | 0.0666 | 0.063 | 0.0653 | 0.0604 | 0.0428 | 0.0981 | – | 0.0644 | 0.0605 | 0.0584 | 0.0593 | 0.0636 | 0.0611 | 0.0665 | 0.0538 | – | 0.0625 | –
8 | G136T | 0.0474 | 0.0675 | 0.0616 | 0.0601 | 0.061 | 0.0517 | 0.0746 | – | – | 0.0428 | 0.0403 | 0.0601 | 0.0494 | 0.0693 | 0.0606 | 0.0608 | 0.0665 | – | –
9 | F140R | 0.0606 | 0.0606 | 0.0681 | 0.0543 | 0.0592 | 0.0534 | 0.0701 | – | 0.0668 | 0.0695 | 0.0638 | 0.0678 | – | 0.0586 | – | 0.0556 | 0.0622 | 0.0649 | 0.0688
10 | K142G | 0.063 | 0.0495 | 0.0637 | 0.0675 | – | 0.0563 | – | 0.0623 | 0.056 | 0.0597 | 0.0647 | 0.0575 | 0.0957 | 0.0517 | 0.0546 | 0.0626 | 0.0599 | 0.0804 | –
11 | W144C | 0.0538 | – | 0.0866 | 0.0649 | 0.0392 | 0.0773 | 0.0863 | – | 0.0664 | 0.0604 | 0.0634 | 0.081 | – | 0.0561 | 0.0594 | 0.0524 | – | 0.0817 | –
12 | W144H | 0.055 | 0.0705 | 0.064 | – | 0.0854 | 0.0586 | 0.104 | – | 0.0648 | 0.0578 | 0.0576 | 0.0781 | – | – | – | – | 0.0572 | 0.0853 | 0.0681
